From patent publication US9242009B2, “Compositions and methods to treat neurodegenerative diseases” (The General Hospital Corporation, priority 2012, dated 2016)

System: mice subjected to bilateral carotid artery occlusion (BCAO) and reperfusion
Conditions: for Body temperature: 25 μmol/kg, mice; for Days after BCAO on which neurological score was improved: 25 μmol/kg i.p., P<0.05 vs. vehicle
[1] = 25 μmol/kg i.p. 1 minute after reperfusion, N=12

| Compound | Number of mice surviving for more than 60 days after BCAO [1] | Survival rate after BCAO (log-rank test) [1] | Body temperature | Days after BCAO on which neurological score was improved | Cerebral infarct volume compared to vehicle (24 hours after BCAO and reperfusion, TTC staining, P<0.001) | Number of mice surviving for more than 60 days after BCAO (mouse, in vivo, ip) | Brain injury after BCAO (mouse, in vivo) | Mice that died in 2 days after BCAO (mouse, in vivo, ip) | Survival rate after BCAO (log-rank test) (mouse, in vivo, ip) | Time in which all treated mice died after BCAO (mouse, in vivo, ip) |
| --- | --- | --- | --- | --- | --- | --- | --- | --- | --- | --- |
| O=C(O)c1ccc(-c2cssc2=S)cc1 [ACS48, 4-(3-thioxo-3H-1,2-dithiol-4-yl)-benzoic acid] | 1 mice | no significant difference in survival rate | did not affect body temperature | – | – | – | – | – | – | – |
| C[C@]12C[C@@H]3C[C@](C)(C1)C[C@@](NC(=O)c1ccc(-c4cssc4=S)cc1)(C3)C2 [S-memantine, N-((1r,3R,5S,7r)-3,5-dimethyladamantan-1-yl)-4-(3-thioxo-3H-1,2-dithiol-4-yl)-benzamide] | 5 mice | markedly higher survival rate | did not affect body temperature | 1-4 day | markedly decreased cerebral infarct volume | – | – | – | – | – |
| CC12CC3CC(C)(C1)CC(N)(C3)C2 [memantine] | – | no significant difference in survival rate | – | 2-3 day | – | 2 mice | – | – | – | – |
| Sodium sulfide [Na2S] | – | – | – | – | – | – | failed to prevent brain injury | 67% | no significant difference in survival rate | 10 days |

Where two headings read alike, the source gives them in different places.
